Test results as given in PubChem BioAssay AID1454 (National Center for Advancing Translational Sciences (NCATS), 2008).
The campaign covered roughly 130,000 compounds. About 550 (0.42%) were called active. Roughly 4% stayed inconclusive and do not appear here. Calls follow the shape of the dose curve; as a rule, active = well fitted inhibition curve with a large enough effect; inconclusive = small, poorly fitted or top-dose-only effect, or effect the other way; inactive = flat fitted curve, though single readings scatter. The entries are a selection whose mix differs from that of the whole data set.

Experiment: qHTS Assay for Inhibitors of the ERK Signaling Pathway using a Homogeneous Screening Assay; Stimulation with EGF; also: nearly all actives have a fitted effect of over 55% in size;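 as to activity change, negative = inhibition: plate controls were stimulated vehicle wells for no effect and unstimulated vehicle basal for full effect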
Settings: HEK293-V1b, EGF-stimulated phospho-ERK AlphaScreen; activity change, negative = inhibition: at the top concentration
Source text: NIH Chemical Genomics Center [NCGC]
NIH Molecular Libraries Screening Centers Network [MLSCN]
Assay Submitter (PI): Dr. Wei Zheng, NCGC/NIH
The Ras/extracellular-signal-regulated kinase (ERK) mitogen activated protein (MAP) kinase signaling pathway (ERK1/2 cascade) plays a key role in transmitting signals from the cell surface to the nucleus (Nishida and Gotoh 1993; Chang and Karin, 2001). The cascade is initiated by the small G-protein Ras, which recruits Raf from the cytosol, where activation occurs. Alternatively, this pathway can be activated by elevating intracellular cAMP, or by activation of a receptor tyrosine kinase as epidermal growth factor receptor.
Activation of the ERK pathway is essential in increased cell division and cell survival. Sustained and constitutive activation of the ERK pathway, however, has been linked to uncontrolled cell proliferation, increased cell survival, and tumor progression. Thus, the ERK has been as an attractive target for cancer chemotherapy in the past few years (Sebolt-Leopold and Herrera, 2004). Given its physiological and pathological importance, assessment of ERK phosphorylation has been broadly performed in both basic research and drug discovery. Most assays for the measurement of ERK phosphorylation use the antibody-based detection methods, such as western blot and ELISA. These assays require multiple reagent additions with cell wash steps and are not suitable for high throughout screening.
The current cell-based ERK phosphorylation assay was performed using AlphaScreen platform. AlphaScreen is a two bead-based proximity-dependent chemical energy transfer luminescent assay platform. The assay reagents (ERK SureFire(TM) kit) were supplied from TGR BioSciences (Australia). In the presence of specific antibodies, phosphorylated ERK will bring "donor" and "acceptor" beads to a proximity range (<200 nm), and subsequently lead a chemical luminescent reaction upon exciting donor beads with 680 nm laser. To exclude the assay-related false positives, we used a biotinylated rabbit IgG to perform counter-screen. The biotinylated antibody mimics the phosphorylated ERK1/2 for bringing streptavidin coated beads and protein-A coated beads to a proximity range for the AlphaScreen detection.
NCGC Assay Protocol Summary:
HEK293 cells stably expressing type-1 vasopressin receptor (V1b) were maintained in DMEM medium (Invitrogen, Carlsbad, CA) at 37C under a humidified atmosphere containing 5% CO2 and 95% air. The medium contained 10% FBS, 2 mM L-glutamine, non-essential amino acid, pyruvate and 50 U/ml penicillin and 50 ug/ml streptomycin (Invitrogen). The aliquots of frozen cells were stored at -135C and used for the compound screening. All compounds were screened as titrations from 0.6 nM to 46 uM final concentration. Epidermal growth factor (EGF) was used to stimulate the ERK phosphorylation pathway. The ERK phosphorylation in cells was determined using an AlphaScreen assay kit provided by […]. Data were normalized to the controls for basal activity (DMSO only) and 100% activation (25 nM EGF). AC50 values were determined from concentration-response data modeled with the standard Hill equation.
(1) Seed 4 ul/well of resuspended frozen HEK293 cells containing 2000 cells in white 1536-well plates for overnight with 1% FBS at 37C under a humidified atmosphere containing 5% CO2 and 95% air.
(2) Add 23 nL compounds in DMSO solution. The final titration was 0.6 nM to 46 uM.
(3) Incubate at 37C for 30 min.
(4) Dispense 0.5uL EGF (25 nM in final)
(5) Incubate at 37C for 5 min.
(6) Dispense 0.5uL of 1:2 diluted 5x lysis buffer.
(7) Incubate at 37C for 10 min.
(8) Dispense 1.5uL of mixture of activation buffer and reaction buffer with AlphaScreen beads (streptavidin donor beads and protein-A acceptor beads, 10 ng/well for each).
(9) Incubate at room temperature for 5 hr.
(10) Detect the assay plate in an EnVision plate reader (PerkinElmer) using the AlphaScreen detection mode.
[…]
Potency is read from the fitted curve at half-maximal effect.

SMILES | activity change, negative = inhibition | Potency
c1ccc(-c2ccc(C(c3ccccc3)n3ccnc3)cc2)cc1 (configuration not stated) | inactive: 5.69% | –
COc1cc(N)c(Cl)cc1C(=O)N[C@@H]1CN2CCC1CC2 | inactive: 0.22% | –
COc1ccc(OC)c([C@H](O)[C@H](C)N)c1 | inactive: 2.9% [at 25.7 µM] | –
Clc1ccc(CO[C@@H](Cn2ccnc2)c2ccc(Cl)cc2Cl)cc1 | inactive: -5.19% [at 25.7 µM] | –
CCCN(CCC)C1Cc2cc(OC)c(OC)cc2C1 | inactive: -6.41% | –
CNc1ccc2oc(C[C@H]3O[C@]4(CC[C@H]3C)O[C@H]([C@H](C)C(=O)c3ccc[nH]3)[C@H](C)C[C@H]4C)nc2c1C(=O)O | inactive: -15.4% | –
COC(=O)N1CCN(C(=O)Cc2ccc(Cl)c(Cl)c2)C(CN2CCCC2)C1 (configuration not stated) | inactive: -0.516% | –
Clc1ccc(CS[C@@H](Cn2ccnc2)c2ccc(Cl)cc2Cl)cc1 | inactive: 2.29% [at 25.7 µM] | –
O=C(O)CNC(=O)C(CS)Cc1ccccc1 (configuration not stated) | inactive: 8.48% | –
C[C@H](CCC(=O)O)[C@H]1CC[C@@H]2[C@H]3CC[C@H]4C[C@@H](O)CC[C@@]4(C)[C@H]3CC[C@]21C | inactive: 6.26% [at 25.7 µM] | –
Cc1ccc(/C=C2\C(=O)NC(=S)N(c3ccccc3F)C2=O)s1 | – | active: 20 µM
Cc1nc(-c2ccc(-c3ccc(C(=O)N4CCc5cc6c(cc54)C4(CCN(C)CC4)CO6)cc3)c(C)c2)no1 | inactive: 9.49% | –
C#CCN(C)[C@@H](C)Cc1ccccc1 | inactive: -8.79% [at 25.7 µM] | –
Clc1ccc(COC(Cn2ccnc2)c2ccc(Cl)cc2Cl)cc1 (configuration not stated) | – | active: 28.2 µM
CCCCCCCCCOc1ccc2[nH]cc(CCN)c2c1 | inactive: -6.37% | –
CC(=O)[C@H]1CCC2C3CC[C@H]4C[C@H](O)CC[C@]4(C)C3CC[C@@]21C (some centres not stated) | inactive: 13.1% | –
O=C(CCCN1CCC2(CC1)C(=O)NCN2c1ccccc1)c1ccc(F)cc1 | – | inactive
Cc1cc(-c2n[nH]c(=S)n2-c2ccc(C)c(C)c2)no1 | – | active: 3.98 µM
Clc1ccc(COC(Cn2ccnc2)c2ccc(Cl)cc2Cl)c(Cl)c1 (configuration not stated) | inactive: 6.98% [at 25.7 µM] | –
COc1ccc(OC)c(C(O)C(C)N)c1 (configuration not stated) | – | inactive
OCC[n+]1c2ccccc2nc2ccc(N3CCOCC3)cc21 | – | active: 14.1 µM

SMILES | activity change, negative = inhibition | Potency
Brc1c(NC2=NCCN2)ccc2nccnc12 | – | inactive
O=c1c(O)c(-c2ccc(O)c(O)c2)oc2cc(O)cc(O)c12 | – | inactive
CCNC(=O)[C@@H]1O[C@@H](n2cnc3c(N)ncnc32)[C@H](O)[C@H]1O | inactive: -13.6% | –
Cc1cc(O)c2c(c1)C(=O)c1cc(O)cc(O)c1C2=O | inactive: -8.43% | –
CC(=O)N1CCN(c2ccc(OC[C@@H]3CO[C@@](Cn4ccnc4)(c4ccc(Cl)cc4Cl)O3)cc2)CC1 | inactive: 5.81% [at 25.7 µM] | –
C#CCN(C)[C@H](C)Cc1ccccc1 | inactive: -6.24% | –
CCCSc1ccc2nc(NC(=O)OC)[nH]c2c1 | – | inactive
Cc1cc2c(C(C)C)c(O)c(O)c(C=O)c2c(O)c1-c1c(C)cc2c(C(C)C)c(O)c(O)c(C=O)c2c1O | – | inactive
CC(=O)[C@@H]1CC[C@@H]2[C@@H]3CCC4=CC(=O)CC[C@@]4(C)[C@H]3CC[C@]21C | inactive: -6.64% [at 25.7 µM] | –
Cc1c2ccncc2c(C)c2c1[nH]c1ccccc12 | – | inactive
O=C1NC(=O)N(CCC2=CCCCC2)C(=O)/C1=C/c1cccs1 | inactive: -13.9% [at 57.5 µM] | –
CCCCC/C=C\C/C=C\C/C=C\C/C=C\CCCC(=O)Nc1ccc(O)cc1 | inactive: 3.31% | –
CCNC(=O)[C@H]1O[C@@H](n2cnc3c(N)ncnc32)[C@H](O)[C@@H]1O | – | active: 8.91 µM
OCCN1CCN(CCCN2c3ccccc3Sc3ccc(C(F)(F)F)cc32)CC1 | – | inactive
COC(=O)N1CCN(C(=O)Cc2ccc(Cl)c(Cl)c2)[C@H](CN2CCCC2)C1 | inactive: -1.52% | –
CCC(COC(=O)c1cc(OC)c(OC)c(OC)c1)(c1ccccc1)N(C)C (configuration not stated) | inactive: -16.8% | –
COC(=O)C1=C(C)NC(C)=C(C(=O)OC)C1c1ccccc1[N+](=O)[O-] | – | inactive
CC[C@H]1CN2CCc3cc(OC)c(OC)cc3[C@@H]2C[C@@H]1C[C@H]1NCCc2cc(OC)c(OC)cc21 | inactive: -9.59% [at 57.5 µM] | –
Cc1ccc(N2C(=O)NC(=O)/C(=C/C=C/c3ccco3)C2=O)cc1 | inactive: 0.485% | –
Fc1ccc(C(OCCN2CCN(CCCc3ccccc3)CC2)c2ccc(F)cc2)cc1 | – | inactive
COc1ccc(Cc2nccc3cc(OC)c(OC)cc23)cc1OC | – | inactive

SMILES | activity change, negative = inhibition | Potency
COc1ccc2c3c([nH]c2c1)C(C)=NCC3 | – | inactive
CCC1CN2CCc3cc(OC)c(OC)cc3C2CC1CC1NCCc2cc(OC)c(OC)cc21 (configuration not stated) | inactive: 1.42% | –
COc1ccc2c(c[n+](C)c3c4cc5c(cc4ccc23)OCO5)c1OC | – | active: 12.6 µM
CC(=O)C1CCC2C3CCC4=CC(=O)CC[C@@]4(C)C3CC[C@]12C (some centres not stated) | inactive: 3.72% | –
Nc1ccncc1 | – | inactive
C[C@@H]1OC(OC2C(OC3CC[C@@]4(C)C5CC=C6C7CC(C)(C)CC[C@@]7(C(=O)O)CCC6(C)C5(C)CCC4[C@]3(C)CO)OCC(O)C2O)C(O)C(O)C1O (some centres not stated) | – | active: 28.2 µM
Clc1ccc(CSC(Cn2ccnc2)c2ccc(Cl)cc2Cl)cc1 (configuration not stated) | inactive: -12.7% [at 57.5 µM] | –
CC(=O)N1CCN(c2ccc(OC[C@H]3CO[C@](Cn4ccnc4)(c4ccc(Cl)cc4Cl)O3)cc2)CC1 | inactive: -0.393% | –
COC(=O)[C@@]1(Cc2ccc(F)cc2)[C@H]2c3cc(C(=O)N(C)C)[nH]c3C[C@H]2CN1C(=O)c1ccccc1 | inactive: 3.34% | –
c1ccc(-c2cc(-c3ccccc3)[n+](-c3ccccc3)c(-c3ccccc3)c2)cc1 | – | active: 22.4 µM
CCNC(=O)[C@H]1O[C@@H](n2cnc3c(N)ncnc32)[C@H](O)[C@H]1O | inactive: 5.97% | –
O=C1NC(=O)C(=Cc2ccccc2Oc2ccc(F)cc2)C(=O)N1 | – | active: 3.98 µM
Cc1cc2c(s1)Nc1ccccc1N=C2N1CCN(C)CC1 | inactive: -24.4% | –
CC1=NCCc2c1[nH]c1cc(O)ccc21 | – | inactive
Cc1nn(C(C)(C)C)c(C)c1/C=N/OC(=O)Nc1ccc(Cl)c(Cl)c1 | – | active: 31.6 µM
O=C(O)c1ccccc1-c1c2cc(Br)c(=O)cc-2oc2[c]([Hg])c(O)c(Br)cc12 | inactive: 8.65% [at 25.7 µM] | –
C#CCN(C)C(C)Cc1ccccc1 (configuration not stated) | – | inactive
O=c1[nH]c2ccccc2n1CCCN1CCC(n2c(=O)[nH]c3cc(Cl)ccc32)CC1 | inactive: -1.34% [at 25.7 µM] | –
COc1cc2c(cc1OC)[C@@H]1C(=O)c3ccc4c(c3OC1CO2)CC(C(C)C)O4 (some centres not stated) | inactive: 11.7% | –
CC(C)CC(N(C)C)C1(c2ccc(Cl)cc2)CCC1 (configuration not stated) | inactive: 9.11% | –
